In publication PMC7819943, “Rice protein-binding microarrays: a tool to detect cis-acting elements near promoter regions in rice”:
Some of the results follow.

Each sequence was assayed against T1, OsWOX13 (Oryza sativa, UniProt Q5QMM3 1-267) (assay: protein-binding microarray (RPBM); PBS, 2% BSA, 51.3 ng/ul salmon testes DNA, 50 uM zinc acetate, 200 nM TF, 25 C, 1 h; high values mean tight binding). Settings: protein: recombinant; tags: N-terminal polyhistidine and DsRed monomer fusion (pET32a); label: CyDye5-dUTP incorporated in the synthesized complementary strand; 3' TTTTT single-stranded linker to array surface; dsDNA, one strand shown.
T1 sequence: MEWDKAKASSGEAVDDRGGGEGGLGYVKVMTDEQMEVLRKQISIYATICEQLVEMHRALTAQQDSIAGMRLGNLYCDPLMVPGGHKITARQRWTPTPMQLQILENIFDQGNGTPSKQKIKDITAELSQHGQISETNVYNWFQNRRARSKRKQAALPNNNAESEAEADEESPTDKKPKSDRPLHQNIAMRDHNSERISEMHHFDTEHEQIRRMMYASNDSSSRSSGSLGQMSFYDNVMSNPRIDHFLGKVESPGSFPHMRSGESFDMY
Summary of the method: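 Per-feature fluorescence intensity (arbitrary units), read on an Axon 4000B scanner, is the binding signal. Transcription factors carrying an N-terminal polyhistidine tag and DsRed fusion were expressed in E. coli BL21-CodonPlus and purified on Ni–NTA. A custom Agilent array, made double-stranded by primer extension with Cy5-dUTP and blocked with 2% BSA, was incubated with 200 nM protein in PBS, 2% BSA, salmon testes DNA and 50 µM zinc acetate at 25 °C for 1 h and then washed.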

| Sequence | binding signal |
| --- | --- |
| TCCCACATTAAATTTACTCATTAGTTGTTAGGAATCGACACGGAGTCACCTAGTGCAG | 6120 fluorescence intensity (a.u.) |
| GATTTAGGGAATTGCAGTTGACTGACTTTAGCAAATACGACGGAGTCACCTAGTGCAG | 3510 fluorescence intensity (a.u.) |
| CACATAAACAGTTTGATGTTAAGGTCTCACAGCACAAGGCCGGAGTCACCTAGTGCAG | 3550 fluorescence intensity (a.u.) |
| CACTCAATTAAAAGAGATTTCGTCAGCTCTTTTCCTTCAACGGAGTCACCTAGTGCAG | 9280 fluorescence intensity (a.u.) |
| AAGATGATGACTGCCTCTGTGCCATTGAAAAGTTCGAACCCGGAGTCACCTAGTGCAG | 5810 fluorescence intensity (a.u.) |
| AGCTGCTCAATCAAGATATGTATATGTGCACGCAGCTAGCCGGAGTCACCTAGTGCAG | 7520 fluorescence intensity (a.u.) |
| CACTTATTTGATTTATAAGTGAGCTCGCGGGTTGGCCCGCCGGAGTCACCTAGTGCAG | 8070 fluorescence intensity (a.u.) |
| TCACAATCATCGTCATTACATATCCCATATATCCCATTCACGGAGTCACCTAGTGCAG | 9660 fluorescence intensity (a.u.) |
| GCAGTTGACAAAGTAGCAAATTTTGCCACCTGTTTCAGTGCGGAGTCACCTAGTGCAG | 3240 fluorescence intensity (a.u.) |
| AAAGAAACAATTAATCACATCATCCATATCAAGTTAGACCCGGAGTCACCTAGTGCAG | 7370 fluorescence intensity (a.u.) |
| ACATCTGATGTGATAGAGACTTGTCCAATCTAAACAGTGTCGGAGTCACCTAGTGCAG | 8950 fluorescence intensity (a.u.) |
| TAGCATGTTTAAATTGATGATAAGTAGAATTACTTATCCTCGGAGTCACCTAGTGCAG | 18600 fluorescence intensity (a.u.) |
| CCAAATCAACGGTTTTGATGGGCCTAAGGCCTGAAACCATCGGAGTCACCTAGTGCAG | 4660 fluorescence intensity (a.u.) |
| GCTGATTACAAGTATATTACTGGATTAGAGAGCCAGTTACCGGAGTCACCTAGTGCAG | 20500 fluorescence intensity (a.u.) |
| CTAAACATGATATCACCAACTTCATCCTACCAAAATTTGGCGGAGTCACCTAGTGCAG | 4320 fluorescence intensity (a.u.) |
| AGTAATTAGCATCACCTCCCTCCTTGCTTATCAACACGTACGGAGTCACCTAGTGCAG | 28100 fluorescence intensity (a.u.) |
| ATGACAGATTCCGTTTTGTAGGAGCAGCGCACCATTTCAGCGGAGTCACCTAGTGCAG | 5570 fluorescence intensity (a.u.) |
| TATCTATAAATCATTAACATATGGTCTCACATCTCATACACGGAGTCACCTAGTGCAG | 3460 fluorescence intensity (a.u.) |
| GTTTTAAAATATAAATGATTTTGGTTTAATAGTATGCATTCGGAGTCACCTAGTGCAG | 4220 fluorescence intensity (a.u.) |
| ATAATTATTTTAGTTTTAATTATCATAAACTTGGAAAATACGGAGTCACCTAGTGCAG | 13000 fluorescence intensity (a.u.) |
| TTTAGCAATTAAAAGTAATTTATGTGTAATATATTTACATCGGAGTCACCTAGTGCAG | 10100 fluorescence intensity (a.u.) |

| Sequence | binding signal |
| --- | --- |
| AGATAATTTAGACCCACGATAATTGGATATTTCGACCGATCGGAGTCACCTAGTGCAG | 36200 fluorescence intensity (a.u.) |
| TGAGATGTATAAATTTACTAAAATAGGAAAAGTAATACGGCGGAGTCACCTAGTGCAG | 3560 fluorescence intensity (a.u.) |
| TTAAACTATATATCATTATATTTCTAGACCTAATGATTAACGGAGTCACCTAGTGCAG | 3400 fluorescence intensity (a.u.) |
| GCGGTTCATTAGTGCGTGATTAATTAAGTATTAGCTATTTCGGAGTCACCTAGTGCAG | 10600 fluorescence intensity (a.u.) |
| CCGCTGAGTGATGGACTAGTGAGGAGACTGCAGCCTCTCACGGAGTCACCTAGTGCAG | 8260 fluorescence intensity (a.u.) |
| CTAAAGTCGATTGAATTAGGATCTGTGCAACTGGGCTTGGCGGAGTCACCTAGTGCAG | 3460 fluorescence intensity (a.u.) |
| AAGAATTGTTTAATTGGGCCATAATATGATTACGGCATATCGGAGTCACCTAGTGCAG | 18600 fluorescence intensity (a.u.) |
| AAAATACTAATTACACAGATTGTGTGTAAATTGTGAGACGCGGAGTCACCTAGTGCAG | 25200 fluorescence intensity (a.u.) |
| TCTGAGATCAATCTATCAATCGTCAACCCTTTGCCTTTGTCGGAGTCACCTAGTGCAG | 13500 fluorescence intensity (a.u.) |
| AGGATTGATGCAGCTGCAAGCACGCAGGATCATCCATTGGCGGAGTCACCTAGTGCAG | 3650 fluorescence intensity (a.u.) |
| AGTGTAATTATGTTATAATTTACATGTAGTTTTAAATTTACGGAGTCACCTAGTGCAG | 16000 fluorescence intensity (a.u.) |
| ACTAATTATACAGATTGCGTGTAAATTGTGAGTTGAATCTCGGAGTCACCTAGTGCAG | 28200 fluorescence intensity (a.u.) |
| TGCAGCAAGATTGGCTACGCGATGTATTTGATAGGTGGATCGGAGTCACCTAGTGCAG | 9490 fluorescence intensity (a.u.) |
| ATGGATATCAATAATTGCACGGGTAACCTTCTTTAATCATCGGAGTCACCTAGTGCAG | 7340 fluorescence intensity (a.u.) |
| ACCTTCTTAAATTTTGATTTTGAAAATGAACCCCTCCAAACGGAGTCACCTAGTGCAG | 4080 fluorescence intensity (a.u.) |
| CGGTTAATTCGGTTAACCGAGCCCAATGACCGAAATACCCCGGAGTCACCTAGTGCAG | 4360 fluorescence intensity (a.u.) |
| TATCTAATTGGCCCAACTAAATCTTGCTTTGCTAGCTTGTCGGAGTCACCTAGTGCAG | 25400 fluorescence intensity (a.u.) |
| GTTGTTTAATTACTTCTTTACCAAGTCAGTACATATTACTCGGAGTCACCTAGTGCAG | 3420 fluorescence intensity (a.u.) |
| TGCTAACAGCATGACTGGTGATTGTGATGCATGACTGGAGCGGAGTCACCTAGTGCAG | 35600 fluorescence intensity (a.u.) |
| GATTTTGACTGAGATATCAATAACTAATAGTTGCGCAAGCCGGAGTCACCTAGTGCAG | 10600 fluorescence intensity (a.u.) |
| AATTTAAAATTTCAACTTTAAATTTGAAGTTAACTTTAAGCGGAGTCACCTAGTGCAG | 3610 fluorescence intensity (a.u.) |
